# Test results: the supplement of paper PMC8728848
# This is one part of the list.
# How the values were obtained:
# Assay in all cases: glycan array binding signal (z-score within array); higher = stronger binding
# Conditions in all cases: glycan notation: IUPAC condensed, linker removed
# [1] = biological target: Neu5Ac(a2-6)Gal(b1-4)GlcNAc(b1-3)Gal(b1-4)GlcNAc(b1-3)GalNAc
# Summary of the method: (§1)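 Glycan array data came from 3228 arrays in the Consortium for Functional Glycomics database, and only arrays with an available protein sequence were kept. Glycan names were put into IUPAC-condensed notation, and columns mapping to the same glycan were averaged. The binding signal is a within-array Z-score, averaged across arrays of one protein sequence run at different concentrations or buffers and across linkers. A negative Z-score can be read as non-binding.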
# [2] = biological target: Neu5Ac(a2-6)Gal(b1-4)GlcNAc(b1-3)Gal(b1-4)GlcNAc(b1-3)[Neu5Ac(a2-6)Gal(b1-4)GlcNAc(b1-3)Gal(b1-4)GlcNAc(b1-6)]GalNAc
# Summary of the method: as §1
# [3] = biological target: Neu5Ac(a2-6)Gal(b1-4)GlcNAc(b1-3)Gal(b1-4)GlcNAc(b1-6)[Gal(b1-3)]GalNAc
# Summary of the method: as §1
# [4] = biological target: Neu5Ac(a2-6)Gal(b1-4)GlcNAc(b1-3)Gal(b1-4)[Fuc(a1-3)]GlcNAc(b1-3)Gal(b1-4)[Fuc(a1-3)]GlcNAc
# Summary of the method: as §1
# [5] = biological target: Neu5Ac(a2-6)Gal(b1-4)GlcNAc(b1-3)GalNAc
# Summary of the method: as §1
# [6] = biological target: Neu5Ac(a2-6)Gal(b1-4)GlcNAc(b1-3)[Neu5Ac(a2-6)Gal(b1-4)GlcNAc(b1-6)]GalNAc
# Summary of the method: as §1
# [7] = biological target: Neu5Ac(a2-6)Gal(b1-4)GlcNAc(b1-6)GalNAc
# Summary of the method: as §1
# [8] = biological target: Neu5Ac(a2-6)Gal(b1-4)GlcNAc(b1-6)[Gal(b1-3)GlcNAc(b1-3)]Gal(b1-4)Glc
# Summary of the method: as §1
# [9] = biological target: Neu5Ac(a2-6)Gal(b1-4)GlcNAc(b1-6)[Gal(b1-3)]GalNAc
# Summary of the method: as §1
# [10] = biological target: Neu5Ac(a2-6)Gal(b1-4)GlcNAc6S
# Summary of the method: as §1
# Neu5Ac(a2-6)GalNAc = biological target: Neu5Ac(a2-6)GalNAc
# Summary of the method: as §1
# [11] = biological target: Neu5Ac(a2-6)GalNAc(b1-4)GlcNAc
# Summary of the method: as §1
# [12] = biological target: Neu5Ac(a2-6)GalNAc(b1-4)GlcNAc6S
# Summary of the method: as §1
# [13] = biological target: Neu5Ac(a2-6)GlcNAc(b1-4)GlcNAc
# Summary of the method: as §1
# [14] = biological target: Neu5Ac(a2-6)GlcNAc(b1-4)GlcNAc(b1-4)GlcNAc
# Summary of the method: as §1
# Neu5Ac(a2-8)Neu5Ac = biological target: Neu5Ac(a2-8)Neu5Ac
# Summary of the method: as §1
# [15] = biological target: Neu5Ac(a2-8)Neu5Ac(a2-3)Gal(b1-3)GalNAc(b1-4)[Neu5Ac(a2-3)]Gal(b1-4)Glc
# Summary of the method: as §1
# [16] = biological target: Neu5Ac(a2-8)Neu5Ac(a2-3)Gal(b1-3)GalNAc(b1-4)[Neu5Ac(a2-8)Neu5Ac(a2-3)]Gal(b1-4)Glc
# Summary of the method: as §1
# [17] = biological target: Neu5Ac(a2-8)Neu5Ac(a2-3)Gal(b1-4)Glc
# Summary of the method: as §1
# [18] = biological target: Neu5Ac(a2-8)Neu5Ac(a2-3)Gal(b1-4)GlcNAc
# Summary of the method: as §1
# [19] = biological target: Neu5Ac(a2-8)Neu5Ac(a2-3)[Gal(b1-3)GalNAc(b1-4)]Gal(b1-4)Glc
# Summary of the method: as §1
# [20] = biological target: Neu5Ac(a2-8)Neu5Ac(a2-3)[GalNAc(b1-4)]Gal(b1-4)Glc
# Summary of the method: as §1
# [21] = biological target: Neu5Ac(a2-8)Neu5Ac(a2-8)Neu5Ac
# Summary of the method: as §1
# [22] = biological target: Neu5Ac(a2-8)Neu5Ac(a2-8)Neu5Ac(a2-3)Gal(b1-4)Glc
# Summary of the method: as §1
# [23] = biological target: Neu5Ac(a2-8)Neu5Ac(a2-8)Neu5Ac(a2-3)[Gal(b1-3)GalNAc(b1-4)]Gal(b1-4)Glc
# Summary of the method: as §1
# [24] = biological target: Neu5Ac(a2-8)Neu5Ac(a2-8)Neu5Ac(a2-3)[GalNAc(b1-4)]Gal(b1-4)Glc
# Summary of the method: as §1
# [25] = biological target: Neu5Ac(a2-8)Neu5Ac(a2-8)Neu5Ac(a2-8)Neu5Ac(a2-3)[GalNAc(b1-4)]Gal(b1-4)Glc
# Summary of the method: as §1
# [26] = biological target: Neu5Ac(a2-8)Neu5Gc(a2-3)Gal(b1-4)GlcNAc
# Summary of the method: as §1
# [27] = biological target: Neu5Ac(b2-6)Gal(b1-4)GlcNAc
# Summary of the method: as §1
# Neu5Ac(b2-6)GalNAc = biological target: Neu5Ac(b2-6)GalNAc
# Summary of the method: as §1
# [28] = biological target: Neu5Ac9Ac(a2-3)Gal(b1-3)GlcNAc
# Summary of the method: as §1
# [29] = biological target: Neu5Ac9Ac(a2-3)Gal(b1-4)GlcNAc
# Summary of the method: as §1
# [30] = biological target: Neu5Ac9Ac(a2-6)Gal(b1-4)GlcNAc
# Summary of the method: as §1
# [31] = biological target: Neu5Gc(a2-3)Gal(b1-3)GlcNAc
# Summary of the method: as §1
# [32] = biological target: Neu5Gc(a2-3)Gal(b1-3)[Fuc(a1-4)]GlcNAc
# Summary of the method: as §1
# Neu5Gc(a2-3)Gal(b1-4)Glc = biological target: Neu5Gc(a2-3)Gal(b1-4)Glc
# Summary of the method: as §1
# [33] = biological target: Neu5Gc(a2-3)Gal(b1-4)GlcNAc
# Summary of the method: as §1
# [34] = biological target: Neu5Gc(a2-3)Gal(b1-4)GlcNAc(b1-3)Gal(b1-4)GlcNAc(b1-2)Man(a1-3)[Neu5Gc(a2-3)Gal(b1-4)GlcNAc(b1-3)Gal(b1-4)GlcNAc(b1-2)Man(a1-6)]Man(b1-4)GlcNAc(b1-4)GlcNAc
# Summary of the method: as §1
# [35] = biological target: Neu5Gc(a2-3)Gal(b1-4)[Fuc(a1-3)]GlcNAc
# Summary of the method: as §1
# [36] = biological target: Neu5Gc(a2-6)Gal(b1-4)GlcNAc
# Summary of the method: as §1
# Neu5Gc(a2-6)GalNAc = biological target: Neu5Gc(a2-6)GalNAc
# Summary of the method: as §1
# [37] = biological target: Neu5Gc(a2-8)Neu5Ac(a2-3)Gal(b1-4)GlcNAc
# Summary of the method: as §1
# [38] = biological target: Neu5Gc(a2-8)Neu5Gc(a2-3)Gal(b1-4)GlcNAc
# Summary of the method: as §1
# [39] = biological target: Neu5Gc(a2-8)Neu5Gc(a2-3)Gal(b1-4)GlcNAc(b1-3)Gal(b1-4)GlcNAc
# Summary of the method: as §1
# [40] = biological target: Neu5Gc(a2-8)Neu5Gc(a2-6)Gal(b1-4)GlcNAc
# Summary of the method: as §1
# [41] = biological target: Neu5Gc(b2-6)Gal(b1-4)GlcNAc
# Summary of the method: as §1
binder,measurement,setting,value
AidA (Burkholderia cenocepacia) (protein) MSRVTDVLVSFDTETILKKYPNPSKNPAAPTLIDWRYVYMVTNQDNVISGQAGGELDLKAQVGDLIRWRETSLSLGFENQVVFYKFIGNVGNDLISTPTPRVAEASIPVPNTSKPEVPTCQKVANYYWSSECLKVGRVTYHFQFQIIDRNCQSQGCFSWDPFISIHN,glycan array binding signal (z-score),[1],-0.056
same,glycan array binding signal (z-score),[2],0.022
same,glycan array binding signal (z-score),[3],-0.035
same,glycan array binding signal (z-score),[4],-0.452
same,glycan array binding signal (z-score),[5],-0.116
same,glycan array binding signal (z-score),[6],-0.366
same,glycan array binding signal (z-score),[7],-0.272
same,glycan array binding signal (z-score),[8],0.253
same,glycan array binding signal (z-score),[9],-0.153
same,glycan array binding signal (z-score),[10],0.403
same,glycan array binding signal (z-score),Neu5Ac(a2-6)GalNAc,-0.424
same,glycan array binding signal (z-score),[11],-0.106
same,glycan array binding signal (z-score),[12],0.072
same,glycan array binding signal (z-score),[13],-0.95
same,glycan array binding signal (z-score),[14],-0.74
same,glycan array binding signal (z-score),Neu5Ac(a2-8)Neu5Ac,0.174
same,glycan array binding signal (z-score),[15],0.068
same,glycan array binding signal (z-score),[16],0.525
same,glycan array binding signal (z-score),[17],-0.109
same,glycan array binding signal (z-score),[18],0.086
same,glycan array binding signal (z-score),[19],-0.288
same,glycan array binding signal (z-score),[20],0.363
same,glycan array binding signal (z-score),[21],-0.365
same,glycan array binding signal (z-score),[22],-1.08
same,glycan array binding signal (z-score),[23],-0.422
same,glycan array binding signal (z-score),[24],-0.087
same,glycan array binding signal (z-score),[25],0.912
same,glycan array binding signal (z-score),[26],-0.269
same,glycan array binding signal (z-score),[27],-0.385
same,glycan array binding signal (z-score),Neu5Ac(b2-6)GalNAc,0.412
same,glycan array binding signal (z-score),[28],0.102
same,glycan array binding signal (z-score),[29],-0.338
same,glycan array binding signal (z-score),[30],-0.733
same,glycan array binding signal (z-score),[31],-0.439
same,glycan array binding signal (z-score),[32],-0.403
same,glycan array binding signal (z-score),Neu5Gc(a2-3)Gal(b1-4)Glc,0.324
same,glycan array binding signal (z-score),[33],-0.728
same,glycan array binding signal (z-score),[34],1.06
same,glycan array binding signal (z-score),[35],0.122
same,glycan array binding signal (z-score),[36],0.291
same,glycan array binding signal (z-score),Neu5Gc(a2-6)GalNAc,-0.606
same,glycan array binding signal (z-score),[37],-0.813
same,glycan array binding signal (z-score),[38],-0.422
same,glycan array binding signal (z-score),[39],-0.459
same,glycan array binding signal (z-score),[40],-0.407
same,glycan array binding signal (z-score),[41],0.599
